The whole screen tested about 310,000 compounds, of which about 14,000 (4.5%) showed an effect of 50% or more. The effect is printed as a negative number. This is one part of the list.
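Note: peak tail current of the secondary pulse compared with the same well before compound.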

For the test, the target named is human ether-à-go-go-related gene (hERG) potassium channel (human, UniProt Q12809). The experiment in a line: primary screen, population patch clamp on CHO cells stably expressing hERG.
Sequence of human ether-à-go-go-related gene (hERG) potassium channel (Q12809 whole entry, looked up): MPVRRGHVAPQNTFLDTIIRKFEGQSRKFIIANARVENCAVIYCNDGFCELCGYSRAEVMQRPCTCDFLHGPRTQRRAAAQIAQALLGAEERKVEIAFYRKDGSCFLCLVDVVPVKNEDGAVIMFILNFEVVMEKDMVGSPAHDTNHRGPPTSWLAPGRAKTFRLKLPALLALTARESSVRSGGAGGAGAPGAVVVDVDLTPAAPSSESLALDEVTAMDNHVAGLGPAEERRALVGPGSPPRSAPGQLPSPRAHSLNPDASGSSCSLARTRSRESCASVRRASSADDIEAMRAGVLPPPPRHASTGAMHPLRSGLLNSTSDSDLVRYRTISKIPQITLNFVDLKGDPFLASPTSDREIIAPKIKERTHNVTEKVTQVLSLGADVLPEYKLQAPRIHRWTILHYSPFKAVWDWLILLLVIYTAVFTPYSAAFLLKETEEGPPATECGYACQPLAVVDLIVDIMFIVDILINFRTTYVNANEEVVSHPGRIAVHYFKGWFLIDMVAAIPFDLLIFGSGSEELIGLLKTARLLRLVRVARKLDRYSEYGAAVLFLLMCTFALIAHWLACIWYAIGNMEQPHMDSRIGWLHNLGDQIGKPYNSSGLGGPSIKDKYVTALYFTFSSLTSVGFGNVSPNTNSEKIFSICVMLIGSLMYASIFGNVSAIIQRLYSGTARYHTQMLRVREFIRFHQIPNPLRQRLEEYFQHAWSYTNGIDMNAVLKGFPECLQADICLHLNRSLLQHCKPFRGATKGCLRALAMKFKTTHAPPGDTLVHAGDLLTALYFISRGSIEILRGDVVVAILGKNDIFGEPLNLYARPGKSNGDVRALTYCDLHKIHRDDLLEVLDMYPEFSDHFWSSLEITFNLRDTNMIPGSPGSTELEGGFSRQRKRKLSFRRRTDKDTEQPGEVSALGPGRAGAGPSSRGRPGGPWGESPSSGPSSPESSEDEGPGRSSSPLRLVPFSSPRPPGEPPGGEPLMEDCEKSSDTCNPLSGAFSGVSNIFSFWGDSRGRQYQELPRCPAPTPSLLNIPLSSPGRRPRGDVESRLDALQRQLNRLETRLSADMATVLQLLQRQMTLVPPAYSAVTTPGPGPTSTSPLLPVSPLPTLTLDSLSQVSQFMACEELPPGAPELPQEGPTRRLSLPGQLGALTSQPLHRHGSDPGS
`O=C(CS(=O)(=O)Cc1ccccc1)Nc1ncccn1`: the “hERG current change (%, negative = inhibition) at 10uM” value came to 11.3%.

`O=C(CCCCCN1C(=O)c2ccccc2C1=O)Nc1nccs1`: the “hERG current change (%, negative = inhibition) at 10uM” value is recorded as -7.89%.

As to `CCN(CC)S(=O)(=O)c1ccc(C(=O)N2CCCCC2)cc1`, the “hERG current change (%, negative = inhibition) at 10uM” value is given as 26.7%. With `CC1C(=O)Nc2ccccc2N1C(=O)c1ccccc1` (stereo not shown), the “hERG current change (%, negative = inhibition) at 10uM” value was found to be 11.5%. To `COc1ccc(-c2ccc(-c3noc(-c4cccs4)n3)c(OC)n2)cc1` belongs 3.26%; to `CC#CC[N+](C)(C)CCCCCCCCCC.[Br-]`, -48.8%; to `Cc1oc(-c2ccoc2)nc1CN(CC1CCC(=O)N1)C(C)C` (stereo not shown), 31.4%. Regarding `COc1ccc(CNC(=O)C(c2ccco2)N(C(=O)c2snc(C(N)=O)c2N)c2cccc(OC)c2)cc1` (stereo not shown), the “hERG current change (%, negative = inhibition) at 10uM” value turned out to be 5.93%.

Consider `COc1ccc(N2CCN(C(=O)NC(=O)c3ccccc3)CC2)cc1`, for which the “hERG current change (%, negative = inhibition) at 10uM” value came out at 4.85%.

Regarding `O=C(Nc1cc(C(=O)N2CCCC2)ccc1N1CCCC1)c1ccccc1`, the “hERG current change (%, negative = inhibition) at 10uM” value is on record as -75.6%. Under `COc1ccccc1NC(=O)Cc1ccsc1` stands 10.3%; under `COc1ccc(CCNC(=S)NCCc2ccc(OC)c(OC)c2)cc1OC`, 5.11%; under `Cc1c(/C(O)=C2\C(=O)C(=O)N(CCN(C)C)C2c2cccnc2)cnn1-c1ccccc1` (stereo not shown), -3.57%. To `COc1ccc(NC(=O)Nc2ccccc2SC)cc1OC` belongs 6.08%. To `CN1CCN(c2c(F)cc3c(=O)c(C(=O)[O-])cn4c3c2OCN4C)CC1` belongs 23.8%; to `COc1ccc(OCc2cc(C(=O)N(C)CC3CCCCO3)no2)c(Cl)c1` (stereo not shown), -17.4%; to `COc1ccccc1NS(=O)(=O)c1cc(NC(=O)CN2C(=O)NC3(CCCC3)C2=O)ccc1C`, -11.6%.

With `COC(=O)c1ccccc1NC(=O)C1CCCC1`, the “hERG current change (%, negative = inhibition) at 10uM” value is given as -12.5%.

Regarding `CC(=O)c1c(N2CCN(Cc3ccccc3)CC2)nc(=S)n(-c2ccccc2)c1C`, the “hERG current change (%, negative = inhibition) at 10uM” value was 4.37%. To `Cc1ccc(Cl)c(OCCN2CCCC(C)C2)c1.O=C(O)C(=O)O` (stereo not shown) belongs -41.8%. To `COc1ccccc1N1CCN(c2nc(N)c(C#N)c(CC#N)c2C#N)CC1` belongs -42.7%. Regarding `O=C(Cc1c(F)cccc1Cl)Nc1cccc(S(=O)(=O)NC2=NCCCCC2)c1`, the “hERG current change (%, negative = inhibition) at 10uM” value is -4.28%. To `CCS(=O)(=O)N1Cc2ccccc2CC1C(=O)N1CCN(c2ccccc2)CC1` (stereo not shown) belongs -20.6%; to `CCCNC(=O)c1ccc(Cn2c(=S)[nH]c3c([nH]c4ccc(OC)cc43)c2=O)cc1`, -6.89%. Under `CC(CN1C(C)CCCC1C)OC(=O)c1ccc(F)cc1.Cl` (stereo not shown) stands -6.06%; under `Cc1ccc(CC(=O)N(Cc2ccccc2)c2ccccn2)cc1`, -43.8%.

For `COc1ccc(/C=N/NC(=O)c2cccnc2)cc1CN1CCc2ccccc2C1`, the “hERG current change (%, negative = inhibition) at 10uM” value is -17.9%. To `COc1ccc(C(=O)C(CCCCC(CN(C)C)C(=O)c2ccc(OC)cc2)CN(C)C)cc1.Cl` (stereo not shown) belongs -2.07%; to `CC(C)[C@H]1C(=O)Nc2ccccc2N1C(=O)N[C@@H](Cc1ccccc1)C(=O)N[C@@H](Cc1ccccc1)C(=O)O`, 5.66%; to `CC(=O)Nc1ccc(S(=O)(=O)N(Cc2ccccc2)c2ccccc2)cc1`, 2.21%. To `O=C(Nc1ccccc1C(=O)Nc1ccncc1)c1cccc([N+](=O)[O-])c1` belongs -18.8%. In the case of `CC(C)c1ccccc1N1CC(C(=O)O)CC1=O` (stereo not shown), the “hERG current change (%, negative = inhibition) at 10uM” value came to 15.1%.

With `Cc1cc(C)nc(N/N=C/c2c(CO)cnc(C)c2O)n1`, the “hERG current change (%, negative = inhibition) at 10uM” value is recorded as -10.7%. With `Cc1cccc(S(=O)(=O)C(C#N)c2nc3ccccc3nc2N2CCOCC2)c1` (stereo not shown), the “hERG current change (%, negative = inhibition) at 10uM” value is given as -0.383%.

Take `CCOC(=O)CSc1nccc(N(C)C)c1C#N`: the “hERG current change (%, negative = inhibition) at 10uM” value amounted to 3.83%. For the compound `CCOC(=O)c1ccc(NC(=O)c2ccccc2)cc1`, the “hERG current change (%, negative = inhibition) at 10uM” value is 3.86%. To `Cc1ccc(S(=O)(=O)Nc2nc(C)c(NC(=O)Nc3ccc(Cl)cc3Cl)s2)cc1` belongs 10.6%; to `CCOC(=O)N1CCN(S(=O)(=O)c2ccc(OC)c(Cl)c2Cl)CC1`, -8.27%; to `CN(Cc1c(C(=O)N/N=C/c2cc(F)ccc2F)nnn1-c1nonc1N)C1CCCCC1`, 6.44%. With `CC(C)c1ccc(S(=O)(=O)Nc2ccc(O)c(Sc3ncn[nH]3)c2)cc1`, the “hERG current change (%, negative = inhibition) at 10uM” value is on record as -6.1%. To `Cc1nn(Cc2ccccc2)c(Cl)c1/C=N/NC(=O)c1cccnc1` belongs -3.29%. Under `Cc1ccc(CNC(=O)CCNC(=O)Cn2ccc3ccccc3c2=O)o1` stands 10.1%; under `Cc1ccc(OCc2ccc(C(=O)Nc3c(C)nn(Cc4c(F)c(F)c(F)c(F)c4F)c3C)o2)c([N+](=O)[O-])c1`, -28.2%; under `COc1cc(C(=O)NNC(=O)C2CC2)cc(OC)c1OC`, 13.7%. Under `Cc1nc(CNS(=O)(=O)c2ccc(Br)cc2)cs1` stands 26%.

Regarding `COc1cc(/C=C/C(=O)N2CCc3ccccc3C2)cc(OC)c1OC`, the “hERG current change (%, negative = inhibition) at 10uM” value is -15.8%. For the compound `CCOc1ccccc1CN1CCC(N2CCOCC2)CC1.O=C(O)C(=O)O`, the “hERG current change (%, negative = inhibition) at 10uM” value is given as 16.9%. To `COc1ccc(S(=O)(=O)NC2CC3CCC2C3)cc1` (stereo not shown) belongs 15.4%; to `O=S(=O)(NCc1ccccc1)c1ccc2ccccc2c1`, 18.2%; to `CCn1c(NC2CCCCC2)nc2ccccc21`, -15%. Under `CC1(C)C(=O)N(CCN2CCC(C(=O)c3ccc(F)cc3)CC2)c2ccccc21.Cl` stands -70.5%.

In the case of `COc1ccc(N2CCN(C3CCCN(C(=O)c4cccc(C)n4)C3)CC2)cc1` (stereo not shown), the “hERG current change (%, negative = inhibition) at 10uM” value was 0.82%. As for `Cc1cccc(C)c1NC(=O)CNC(=O)Cn1nc(C)c(C)c(C#N)c1=O`, the “hERG current change (%, negative = inhibition) at 10uM” value was 9.86%. To `O=C(NCCCn1ccnc1)c1cc([N+](=O)[O-])cc([N+](=O)[O-])c1` belongs -4.05%; to `COCCN(C(=O)COC(=O)c1cccs1)c1c(N)n(Cc2ccccc2)c(=O)[nH]c1=O`, 8.82%.

Source of the values: PMC4336329 (PLoS ONE, 2015).
